Measurements: the supplement of paper PMC4996465

Legend:
[1] = test system: KB3-1; assay: log AC50 of viability decrease (48 h) (log10 M); higher = less potent
Experimental: (§1)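 Eleven-dose screen of the NCATS MIPE 3 library on cells without co-treatment; CellTiter-Glo after 48 h. AC50 from the curve fit; only inhibitory curves of the better fit classes are listed.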

[2] = test system: Nalm-6; assay: as above
Experimental: as §1

[3] = test system: KB3-1; assay: viability (% of DMSO control); higher = more viable cells
Experimental: (§2)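 Eleven-dose screen of the NCATS MIPE 3 library on cells without co-treatment; CellTiter-Glo after 48 h, as % of DMSO wells.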

[4] = test system: Nalm-6; assay: as above
Experimental: as §2

SMILES	log AC50 of viability decrease [1]	log AC50 of viability decrease ([2]; run: 1)	log AC50 of viability decrease ([2]; run: 2)	viability ([3]; 0.00078 µM) [%]	viability ([3]; 0.00234 µM) [%]	viability ([3]; 0.00702 µM) [%]	viability ([3]; 0.0211 µM) [%]	viability ([3]; 0.0632 µM) [%]	viability ([3]; 0.19 µM) [%]	viability ([3]; 0.569 µM) [%]	viability ([3]; 1.71 µM) [%]	viability ([3]; 5.12 µM) [%]	viability ([3]; 15.4 µM) [%]	viability ([3]; 46.1 µM) [%]	viability ([4]; run: 1, 0.00078 µM) [%]	viability ([4]; run: 1, 0.00234 µM) [%]	viability ([4]; run: 1, 0.00702 µM) [%]	viability ([4]; run: 1, 0.0211 µM) [%]	viability ([4]; run: 1, 0.0632 µM) [%]	viability ([4]; run: 1, 0.19 µM) [%]	viability ([4]; run: 1, 0.569 µM) [%]	viability ([4]; run: 1, 1.71 µM) [%]	viability ([4]; run: 1, 5.12 µM) [%]	viability ([4]; run: 1, 15.4 µM) [%]	viability ([4]; run: 1, 46.1 µM) [%]	viability ([4]; run: 2, 0.00078 µM) [%]	viability ([4]; run: 2, 0.00234 µM) [%]	viability ([4]; run: 2, 0.00702 µM) [%]	viability ([4]; run: 2, 0.0211 µM) [%]	viability ([4]; run: 2, 0.0632 µM) [%]	viability ([4]; run: 2, 0.19 µM) [%]	viability ([4]; run: 2, 0.569 µM) [%]	viability ([4]; run: 2, 1.71 µM) [%]	viability ([4]; run: 2, 5.12 µM) [%]	viability ([4]; run: 2, 15.4 µM) [%]	viability ([4]; run: 2, 46.1 µM) [%]
CC(C)Oc1cc(Nc2nc(N[C@@H](C)c3ccc(F)cn3)ncc2Cl)n[nH]1 [AZ-23]	-4.68	-4.78	-4.68	107	92.4	105	103	99.7	97.5	95.3	94.1	87.9	67.1	16.2	113	115	118	122	112	114	94.8	95.4	74	66.5	2.16	106	103	108	97.7	103	104	95.9	99.1	83.1	71.7	1.66
CN1\C=N/C2=CC=C(NC3=CC(=CC=C3C)NC(=O)C4=CC(=CC=C4)C(C)(C)C#N)C=C2C1=O [AZ-628]	-4.68	-4.73	-4.63	102	104	111	100	96.9	97.6	96.9	93.5	84	85.4	38	107	114	113	101	99.9	105	95.5	96	84.2	72	6.55	107	107	101	108	98.6	102	101	98	87.7	82.1	3.75
COc1cc(OC2CCN(C)CC2)ccc1Nc1ncc2c(n1)n(C1CCCC1)c(=O)n2C [AZ-3146]	-4.78	-4.78	-4.98	96.8	102	103	110	109	100	101	90.6	72.4	67	29	68.9	67.9	76.3	80.7	93.5	93	100	73.5	64.8	47.1	1.67	104	110	118	108	110	111	101	75	68	39.2	7.73

Viability of KB3-1 and Nalm-6 cells after 48 h of drug alone (CellTiter-Glo), 11 doses over about 4.5 log units. % of DMSO wells, lower = more cell loss; AC50 from the fitted curve, lower = more potent. No active / inactive call. Nalm-6 was screened in two runs. AC50 is listed only for well-fitted inhibitory curves. KB3-1 is a HeLa-derived carcinoma line, Nalm-6 a B-cell precursor leukaemia line.
